Target: N-terminal truncated recombinant human PDE7B enzyme (Homo sapiens (Human), UniProt Q9NP56)
Assay: biochemical

SMILES: C=CCN(C)C(=O)c1cc2cc(Cl)c3c(c2o1)C1(CCCCC1)NC(=O)N3 [Example 384, 5′-Chloro-N-methyl-7′-oxo-N-(prop-2-en-1-yl)-7′,8′-dihydro-6′H-spiro[cyclohexane-1,9′-furo[2,3-f]quinazoline]-2′-carboxamide]
- IC50: 10 to 100 nM

SMILES: O=C1Nc2c(Cl)cc3cc(CN4CCC5(CC4)CC5)oc3c2C2(CCCCC2)N1 [Example 526, 2′-{6-Azaspiro[2.5]octan-6-ylmethyl}-5′-chloro-7′,8′-dihydro-6′H-spiro[cyclohexane-1,9′-furo[2,3-f]quinazoline]-7′-one]
- IC50: 100 to 1000 nM

SMILES: CCCN(CCO)C(=O)c1cc2cc(Cl)c3c(c2o1)C1(CCCCC1)NC(=O)N3 [Example 258, 5′-Chloro-N-(2-hydroxyethyl)-7′-oxo-N-propyl-7′,8′-dihydro-6′H-spiro[cyclohexane-1,9′-furo[2,3-f]quinazoline]-2′-carboxamide]
- IC50: 10 to 100 nM

SMILES: O=C1Nc2c(Cl)cc3nc(CN[C@H]4CCOC4)oc3c2C2(CCC(F)(F)CC2)N1 [Example 228, 5-Chloro-4′,4′-difluoro-2-({[(3S)-oxolan-3-yl]amino}methyl)-7,8-dihydro-6H-spiro[[1,3]oxazolo[5,4-f]quinazoline-9,1′-cyclohexane]-7-one]
- IC50: 100 to 1000 nM

SMILES: Cc1nc2cc(Cl)c3c(c2o1)C1(CCC(F)(F)CC1)NC(=O)N3 [Example 11, 5′-Chloro-4,4-difluoro-2′-methyl-6′H-spiro[cyclohexane-1,9′-oxazolo[5,4-f]quinazolin]-7′(8′H)-one]
- IC50: 100 to 1000 nM

SMILES: CCc1cc(CN(C)Cc2cc3cc(Cl)c4c(c3o2)C2(CCCCC2)NC(=O)N4)on1 [Example 554, 5′-Chloro-2′-({[(3-ethyl-1,2-oxazol-5-yl)methyl](methyl)amino}methyl)-7′,8′-dihydro-6′H-spiro[cyclohexane-1,9′-furo[2,3-f]quinazoline]-7′-one]
- IC50: 100 to 1000 nM

SMILES: COCCOCc1nc2cc(Cl)c3c(c2o1)C1(CCCCC1)NC(=O)N3 [Example 5, 5′-Chloro-2′-((2-methoxyethoxy)methyl)-6′H-spiro[cyclohexane-1,9′-oxazolo[5,4-f]quinazolin]-7′(8′H)-one]
- IC50: 10 to 100 nM

SMILES: O=C1Nc2c(Cl)cc3cc(C(=O)NCc4ccsc4)oc3c2C2(CCCCC2)N1 [Example 436, 5′-Chloro-7′-oxo-N-(thiophen-3-ylmethyl)-7′,8′-dihydro-6′H-spiro[cyclohexane-1,9′-furo[2,3-f]quinazoline]-2′-carboxamide]
- IC50: 10 to 100 nM

SMILES: CN(CC(=O)N(C)C)Cc1nc2cc(F)c3c(c2o1)C1(CCCCC1)NC(=O)N3 [Example 224, 2-({5-Fluoro-7-oxo-7,8-dihydro-6H-spiro[[1,3]oxazolo[5,4-f]quinazoline-9,1′-cyclohexane]-2-ylmethyl}(methyl)amino)-N,N-dimethylacetamide]
- IC50: 10 to 100 nM

SMILES: O=C1Nc2c(Cl)cc3cc(C(=O)N4C[C@H]5C[C@H]5C4)oc3c2C2(CCCCC2)N1 [Example 322, 2′-[(1R,5S)-3-azabicyclo[3.1.0]hexane-3-carbonyl]-5′-chloro-7′,8′-dihydro-6′H-spiro[cyclohexane-1,9′-furo[2,3-f]quinazoline]-7′-one]
- IC50: 10 to 100 nM

SMILES: COCC1CN(Cc2nc3cc(Cl)c4c(c3o2)C2(CCCCC2)NC(=O)N4)C1 [Example 75, 5-Chloro-2-{[3-(methoxymethyl)azetidin-1-yl]methyl}-7,8-dihydro-6H-spiro[[1,3]oxazolo[5,4-f]quinazoline-9,1′-cyclohexane]-7-one]
- IC50: 10 to 100 nM

SMILES: CN(Cc1cccs1)C(=O)c1cc2cc(Cl)c3c(c2o1)C1(CCCCC1)NC(=O)N3 [Example 409, 5′-Chloro-N-methyl-7′-oxo-N-(thiophen-2-ylmethyl)-7′,8′-dihydro-6′H-spiro[cyclohexane-1,9′-furo[2,3-f]quinazoline]-2′-carboxamide]
- IC50: 100 to 1000 nM

SMILES: O=C1Nc2c(Cl)cc3cc(C(=O)N4CCC[C@@H]4C(=O)O)oc3c2C2(CCCCC2)N1 [Example 398, (2R)-1-({5′-Chloro-7′-oxo-7′,8′-dihydro-6′H-spiro[cyclohexane-1,9′-furo[2,3-f]quinazoline]-2′-yl}carbonyl)pyrrolidine-2-carboxylic acid]
- IC50: 100 to 1000 nM

SMILES: O=C1Nc2c(Cl)cc3cc(C(=O)NC45CC(C4)C5)oc3c2C2(CCCCC2)N1 [Example 382, N-{bicyclo[1.1.1]pentan-1-yl}-5′-chloro-7′-oxo-7′,8′-dihydro-6′H-spiro[cyclohexane-1,9′-furo[2,3-f]quinazoline]-2′-carboxamide]
- IC50: 10 to 100 nM

SMILES: CC(C)N1CCC(NC(=O)c2cc3cc(Cl)c4c(c3o2)C2(CCCCC2)NC(=O)N4)CC1 [Example 455, 5′-Chloro-7′-oxo-N-[1-(propan-2-yl)piperidin-4-yl]-7′,8′-dihydro-6′H-spiro[cyclohexane-1,9′-furo[2,3-f]quinazoline]-2′-carboxamide]
- IC50: 100 to 1000 nM

SMILES: N#CC1CCN(C(=O)c2cc3cc(Cl)c4c(c3o2)C2(CCCCC2)NC(=O)N4)CC1 [Example 406, 1-({5′-Chloro-7′-oxo-7′,8′-dihydro-6′H-spiro[cyclohexane-1,9′-furo[2,3-f]quinazoline]-2′-yl}carbonyl)piperidine-4-carbonitrile]
- IC50: 10 to 100 nM

SMILES: CC(C)CC1CN(Cc2nc3cc(Cl)c4c(c3o2)C2(CCCCC2)NC(=O)N4)CCO1 (centres unmarked) [Example 99, 5-Chloro-2-{[2-(2-methylpropyl)morpholin-4-yl]methyl}-7,8-dihydro-6H-spiro[[1,3]oxazolo[5,4-f]quinazoline-9,1′-cyclohexane]-7-one]
- IC50: 100 to 1000 nM

SMILES: COC1CCN(Cc2cc3cc(Cl)c4c(c3o2)C2(CCCCC2)NC(=O)N4)CC1 [Example 485, 5′-Chloro-2′-[(4-methoxypiperidin-1-yl)methyl]-7′,8′-dihydro-6′H-spiro[cyclohexane-1,9′-furo[2,3-f]quinazoline]-7′-one]
- IC50: 10 to 100 nM

SMILES: CCN(C)C(=O)c1cc2cc(Cl)c3c(c2o1)C1(CCCCC1)NC(=O)N3 [Example 374, 5′-Chloro-N-ethyl-N-methyl-7′-oxo-7′,8′-dihydro-6′H-spiro[cyclohexane-1,9′-furo[2,3-f]quinazoline]-2′-carboxamide]
- IC50: 10 to 100 nM

SMILES: COCCNC(=O)c1nc2cc(Cl)c3c(c2o1)C1(CCCCC1)NC(=O)N3 [Example 183, 5-Chloro-N-(2-methoxyethyl)-7-oxo-7,8-dihydro-6H-spiro[[1,3]oxazolo[5,4-f]quinazoline-9,1′-cyclohexane]-2-carboxamide]
- IC50: 10 to 100 nM

SMILES: O=C1Nc2c(Cl)cc3cc(CN4CCN(c5ccncc5)CC4)oc3c2C2(CCCCC2)N1 [Example 474, 5′-Chloro-2′-{[4-(pyridin-4-yl)piperazin-1-yl]methyl}-7′,8′-dihydro-6′H-spiro[cyclohexane-1,9′-furo[2,3-f]quinazoline]-7′-one]
- IC50: 100 to 1000 nM

SMILES: O=C1Nc2c(Cl)cc3cc(C(=O)NCCN4CCOCC4)oc3c2C2(CCCCC2)N1 [Example 315, 5′-Chloro-N-[2-(morpholin-4-yl)ethyl]-7′-oxo-7′,8′-dihydro-6′H-spiro[cyclohexane-1,9′-furo[2,3-f]quinazoline]-2′-carboxamide]
- IC50: 100 to 1000 nM

SMILES: COCCN(CCOC)c1nc2cc(Cl)c3c(c2o1)C1(CCCCC1)NC(=O)N3 [Example 24, 2′-(Bis(2-methoxyethyl)amino)-5′-chloro-6′H-spiro[cyclohexane-1,9′-oxazolo[5,4-f]quinazolin]-7′(8′H)-one]
- IC50: 100 to 1000 nM

SMILES: CN(Cc1nc2ccccc2n1C)C(=O)c1cc2cc(Cl)c3c(c2o1)C1(CCCCC1)NC(=O)N3 [Example 288, 5′-Chloro-N-methyl-N-[(1-methyl-1H-1,3-benzodiazol-2-yl)methyl]-7′-oxo-7′,8′-dihydro-6′H-spiro[cyclohexane-1,9′-furo[2,3-f]quinazoline]-2′-carboxamide]
- IC50: 10 to 100 nM

SMILES: CN(Cc1ccsc1)C(=O)c1cc2cc(Cl)c3c(c2o1)C1(CCCCC1)NC(=O)N3 [Example 405, 5′-Chloro-N-methyl-7′-oxo-N-(thiophen-3-ylmethyl)-7′,8′-dihydro-6′H-spiro[cyclohexane-1,9′-furo[2,3-f]quinazoline]-2′-carboxamide]
- IC50: 10 to 100 nM

SMILES: CCCN(C)C(=O)c1cc2cc(Cl)c3c(c2o1)C1(CCCCC1)NC(=O)N3 [Example 397, 5′-Chloro-N-methyl-7′-oxo-N-propyl-7′,8′-dihydro-6′H-spiro[cyclohexane-1,9′-furo[2,3-f]quinazoline]-2′-carboxamide]
- IC50: 10 to 100 nM

SMILES: O=C1Nc2c(Cl)cc3cc(CN4CCN(Cc5ccco5)CC4)oc3c2C2(CCCCC2)N1 [Example 529, 5′-Chloro-2′-{[4-(furan-2-ylmethyl)piperazin-1-yl]methyl}-7′,8′-dihydro-6′H-spiro[cyclohexane-1,9′-furo[2,3-f]quinazoline]-7′-one]
- IC50: 100 to 1000 nM

SMILES: COC(=O)CN(C)Cc1nc2cc(Cl)c3c(c2o1)C1(CCCCC1)NC(=O)N3 [Example 127, Methyl 2-({5-chloro-7-oxo-7,8-dihydro-6H-spiro[[1,3]oxazolo[5,4-f]quinazoline-9,1′-cyclohexane]-2-ylmethyl}(methyl)amino)acetate]
- IC50: 10 to 100 nM

SMILES: Cc1cncc(CNC(=O)c2cc3cc(Cl)c4c(c3o2)C2(CCCCC2)NC(=O)N4)c1 [Example 344, 5′-Chloro-N-[(5-methylpyridin-3-yl)methyl]-7′-oxo-7′,8′-dihydro-6′H-spiro[cyclohexane-1,9′-furo[2,3-f]quinazoline]-2′-carboxamide]
- IC50: 10 to 100 nM

SMILES: CC1CCCN(C(=O)c2cc3cc(Cl)c4c(c3o2)C2(CCCCC2)NC(=O)N4)C1 (centres unmarked) [Example 429, 5′-Chloro-2′-(3-methylpiperidine-1-carbonyl)-7′,8′-dihydro-6′H-spiro[cyclohexane-1,9′-furo[2,3-f]quinazoline]-7′-one]
- IC50: 10 to 100 nM

SMILES: O=C1Nc2c(Cl)cc3cc(C(=O)N4CCCC4c4ccccn4)oc3c2C2(CCCCC2)N1 (centres unmarked) [Example 291, 5′-Chloro-2′-[2-(pyridin-2-yl)pyrrolidine-1-carbonyl]-7′,8′-dihydro-6′H-spiro[cyclohexane-1,9′-furo[2,3-f]quinazoline]-7′-one]
- IC50: 10 to 100 nM

SMILES: CC(C)N(C)C(=O)c1cc2cc(Cl)c3c(c2o1)C1(CCCCC1)NC(=O)N3 [Example 391, 5′-Chloro-N-methyl-7′-oxo-N-(propan-2-yl)-7′,8′-dihydro-6′H-spiro[cyclohexane-1,9′-furo[2,3-f]quinazoline]-2′-carboxamide]
- IC50: 10 to 100 nM

Reference: patent US11685745B2, “Substituted benzoxazole and benzofuran compounds as PDE7 inhibitors” (Dart NeuroScience, LLC, priority 2017, dated 2023)
